Experimental data published in PubChem BioAssay AID686979 (National Center for Advancing Translational Sciences (NCATS), 2013).
Out of some 420,000 compounds screened, about 50,000 (12%) were called active. The shares of active, inactive and inconclusive entries below differ from those in the screen. Calls come from the whole dose curve; as a rule, active = well fitted inhibition curve with a large enough effect; inconclusive = small, poorly fitted or top-dose-only effect; inactive = flat fitted curve, though single readings scatter. Potencies of inconclusive entries are left out as doubtful fits.

Experiment: qHTS for Inhibitors of human tyrosyl-DNA phosphodiesterase 1 (TDP1): qHTS in cells in presence of CPT; note: nearly all actives have a fitted effect of over 55% in size
Conditions: chicken DT40 Tdp1-/-;hTDP1 cells + 20 nM CPT, ATP luminescence, 48 h; activity change, negative = growth inhibition: at 46.2 µM (top of the series) unless noted
Method in brief: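 Chicken DT40 Tdp1-/- cells stably complemented with human TDP1 were seeded at 400 cells/well in medium containing 20 nM camptothecin, exposed to pin-transferred compounds, and grown at 37 °C for at least 48 hr. Viability was read as ATP luminescence.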
% is set by controls: 0 for no effect and ±100 for the full control effect; potency is the fitted concentration of half-maximal effect; tags give direction and shape of the fitted curve.

Structure (SMILES)	Potency	activity change, negative = growth inhibition
CCOC(=O)c1ccc(NC(=O)c2cccc(S(=O)(=O)N3CCOCC3)c2)cc1	inconclusive [inhibitor, single point]	
CCOC(=O)C1=C(c2ccccc2)N(C)C(=O)NC1c1ccc(OC(F)F)c(OC)c1 (stereo unspecified)	inconclusive [inhibitor, single point]	
CCOC(=O)Nc1ccc2c(c1)N(C(=O)CCN(CC)CC)c1ccccc1CC2	inconclusive [inhibitor, single point]	
Cc1cccc(C)c1OCc1cc(C(=O)N(C)Cc2nc3ccccc3[nH]2)no1	inconclusive [inhibitor, single point]	
O=c1onc(-c2cccnc2)n1-c1ccccc1F		inactive: -11.4%
CCOC(=O)c1cccc(NC(=O)C(NS(=O)(=O)c2ccc3c(c2)CCN3C(C)=O)C(C)C)c1 (stereo unspecified)		inactive: -14%
CC(C)(CSc1ccccn1)NS(=O)(=O)c1ccc(Cl)cc1		inactive: -24.5%
O=C1N=C(c2ccccc2)C(c2ccccc2)N1 (stereo unspecified)		inconclusive: -33% [inhibitor]
Cc1ccc(NC(=O)CN(C)C(=S)NC2CC2)cc1		inactive: 0.0515%
COc1cccc(CNC(=O)c2ccc(CNS(=O)(=O)c3ccc(C)cc3)cc2)c1	inconclusive [inhibitor, partial curve]	
Cc1ccc(OCCn2c(C)nc3ccccc32)cc1	inconclusive [inhibitor, single point]	
COCCCNC(=O)c1cc(Sc2ccc(F)cc2)nc2ccccc12	inconclusive [inhibitor, single point]	
CCOC(=O)CN1CC23C=CC(O2)C(C(=O)NC2CCCCCC2)C3C1=O (stereo unspecified)		inconclusive: -30.3% [inhibitor]
CCN1C(=O)[C@H]2[C@@H](c3ccc(Cl)cc3)N3C(=O)CN(CCOC)C(=O)[C@@]3(C)[C@H]2C1=O		inactive: 7.22%
COc1ccc(C2C(=O)N(C3CCCCC3)CC(=O)N2CCc2ccccc2)cc1OC (stereo unspecified)	inconclusive [inhibitor, partial curve]	
Cc1cccc(N2CCN(C(=O)c3cnn(-c4ccccc4Cl)c3C3CCN(C(=O)OC(C)(C)C)CC3)CC2C)c1 (stereo unspecified)	inconclusive [inhibitor, single point]	
Cc1ccc(-n2nc3ccc(N)cc3n2)cc1		inactive: -19.8%
CC1CCN(S(=O)(=O)c2cc(C(=O)NC3(C)CCS(=O)(=O)C3)ccc2Br)CC1 (stereo unspecified)		inactive: -5.52%
Cc1nnc(SCC(=O)Nc2nccs2)[nH]c1=O	inconclusive [inhibitor, single point]	
CCOC(=O)c1sc(NC(=O)CSc2nccn2C)nc1C		inactive: -24.2%
N#C/C(C(=O)Oc1ccccc1)=C1\C=Cc2ccccc2N1		inactive: -17.4%
COc1ccc(S(=O)(=O)N2CCN(c3nc(-c4cccnc4)nc4ccccc34)CC2)cc1	active: 18.4 µM	
CC(=O)c1ccc(N2CCN(C(C)C(=O)Nc3ccc4c(c3)OCCO4)CC2)cc1 (stereo unspecified)		inactive: -24.7%

Structure (SMILES)	Potency	activity change, negative = growth inhibition
COc1cccc2cc(/C(=N/O)c3ccc(Br)cc3)oc12	inconclusive [inhibitor, single point]	
Cc1cccc(OCc2nc(CC(=O)Nc3ccc(C)cc3C)cs2)c1	active: 14.6 µM	
CCNC(=O)Oc1ccc(-c2csnn2)cc1	inconclusive [inhibitor, single point]	
COc1ccc(S(=O)(=O)n2nc(C)cc2C)c(C)c1C		inactive: -28.2%
Cc1ccc(S(=O)(=O)N2CCC(=O)N(CCOCc3ccc(Cl)cc3)CC2)cc1	active: 11.6 µM	
N#C/C(=C\c1ccc(Sc2ccc(Cl)cc2)o1)c1nc2ccccc2[nH]1	active: 20.6 µM	
COc1ccc(CNCCCSc2nnnn2-c2ccccc2)cc1	inconclusive [inhibitor, single point]	
O=C(NC1CC2CCCC(C1)N2C(=S)Nc1ccc(Cl)cc1)C1CC1 (stereo unspecified)	inconclusive [inhibitor, partial curve]	
COCCn1nnnc1C(c1ccccc1OC)N1CCN(c2ccccc2F)CC1 (stereo unspecified)	inconclusive [inhibitor, single point]	
CCc1ccc(C2c3c(oc4ccc(F)cc4c3=O)C(=O)N2CCc2ccc(OC)cc2)cc1 (stereo unspecified)	inconclusive [inhibitor, single point]	
O=C(Nc1ccccc1C(F)(F)F)c1cc(-c2ccc3c(c2)OCCO3)on1	inconclusive [inhibitor, single point]	
O=c1[nH]c(SCc2ccccc2[N+](=O)[O-])nc2nc[nH]c12		inactive: -5.6%
CCC(CO)Oc1cc(NC(=O)c2ccccc2)c2ncn(C(C)C)c2c1 (stereo unspecified)	inconclusive [inhibitor, partial curve]	
Cc1cnc(C)c(Nc2nc(C(N)Cc3ccc(F)cc3)cs2)n1 (stereo unspecified)	active: 25.9 µM	
CC1C=CCC2C(=O)N(c3cccc(C(=O)Nc4ccc(F)cc4)c3)C(=O)C12 (stereo unspecified)		inactive: -24.5%
CC(=O)Nc1ccc(S(=O)(=O)N(C)CC(=O)OC2CCCCC2=O)cc1 (stereo unspecified)		inactive: -2.48%
CCOC(=O)c1c(NC(=O)c2cc(OCC)c(OCC)c(OCC)c2)sc2c1CCCCC2	inconclusive [inhibitor, single point]	
CN1C(CC(=O)Nc2ccc(Br)cc2)c2ccccc2CC1(C)C (stereo unspecified)	inconclusive [inhibitor, single point]	
CCOC(=O)c1c(N)n(CCOC(=O)c2cccs2)c2nc3ccccc3nc12	inconclusive [inhibitor, single point]	
Cc1ccc(CNC(=O)Cn2c(=O)ccc3cc(S(=O)(=O)N4CCC(C)CC4)ccc32)cc1	inconclusive [inhibitor, single point]	
CC(C)(C)OC(=O)C(Cl)(C(=O)OC(C)(C)C)c1ccc2nnnn2n1	inconclusive [inhibitor, single point]	
O=C(CN1C(=O)/C(=C/c2ccccc2)SC1=S)NC1C=CS(=O)(=O)C1 (stereo unspecified)	inconclusive [inhibitor, single point]	
Cc1cccc(Cl)c1NC(=S)NN	inconclusive [inhibitor, partial curve, poor fit]	
